In PMC7819943, “Rice protein-binding microarrays: a tool to detect cis-acting elements near promoter regions in rice”:
Some of the results follow.

biological target: T1, OsWOX13 (Oryza sativa, UniProt Q5QMM3 1-267); experiment: protein-binding microarray (RPBM); PBS, 2% BSA, 51.3 ng/ul salmon testes DNA, 50 uM zinc acetate, 200 nM TF, 25 C, 1 h; high values mean tight binding; details: protein: recombinant; tags: N-terminal polyhistidine and DsRed monomer fusion (pET32a); label: CyDye5-dUTP incorporated in the synthesized complementary strand; 3' TTTTT single-stranded linker to array surface; dsDNA, one strand shown
T1 sequence: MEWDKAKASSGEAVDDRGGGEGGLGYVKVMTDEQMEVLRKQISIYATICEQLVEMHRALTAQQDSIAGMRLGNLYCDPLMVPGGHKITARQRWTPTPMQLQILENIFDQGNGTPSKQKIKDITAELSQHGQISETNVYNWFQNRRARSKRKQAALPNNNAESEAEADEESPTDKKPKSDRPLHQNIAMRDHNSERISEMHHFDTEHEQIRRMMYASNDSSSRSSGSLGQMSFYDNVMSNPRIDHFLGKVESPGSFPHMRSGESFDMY
Procedure, shortened: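 An Axon 4000B scanner gave the binding signal as per-feature fluorescence intensity in arbitrary units. This followed washing of a custom Agilent array that had been incubated for 1 h at 25 °C with 200 nM protein in PBS, 2% BSA, salmon testes DNA and 50 µM zinc acetate. The proteins were transcription factors fused at the N-terminus to polyhistidine and DsRed, expressed in E. coli BL21-CodonPlus and purified on Ni–NTA.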

Sequence | binding signal
GTGAGATTAGACATTGCCACGTGGCTGGCGGTCTCGCAGCCGGAGTCACCTAGTGCAG | 4700 fluorescence intensity (a.u.)
AATTGGTCCGGTTTTAATAATTGACGGAGCATCTATACCCCGGAGTCACCTAGTGCAG | 4430 fluorescence intensity (a.u.)
AGAACAATCATCAACTTTTAACGGCACATTTACTAACAATCGGAGTCACCTAGTGCAG | 6910 fluorescence intensity (a.u.)
TAATTTGTTCTCAATCATACACACTCGCAAATTAATTCTACGGAGTCACCTAGTGCAG | 7820 fluorescence intensity (a.u.)
TTAATATTTATAATTAGTGTCTAAACATCTGATGTGATAGCGGAGTCACCTAGTGCAG | 18100 fluorescence intensity (a.u.)
TCCATGAGACATGATCATCAATTAATACATGTGCTGATCACGGAGTCACCTAGTGCAG | 12500 fluorescence intensity (a.u.)
CAATACTAAATTAACATGACTAACTTTCTCCCTTATGCAGCGGAGTCACCTAGTGCAG | 13500 fluorescence intensity (a.u.)
ACGCAAAACTGTGAAAATCATTAACGTGTATTTAATTGACCGGAGTCACCTAGTGCAG | 5900 fluorescence intensity (a.u.)
GCATGACATTTTCCAGTTTATTTTCTTCTTTCTTTCTCTCCGGAGTCACCTAGTGCAG | 5390 fluorescence intensity (a.u.)
AAAGCAATCAACCCATACCAACCGAGTTAGGCACGGTTCTCGGAGTCACCTAGTGCAG | 3390 fluorescence intensity (a.u.)
CTTTAAAATTAATTAAATTTGAAAATTAGTAACGAGGGGACGGAGTCACCTAGTGCAG | 26700 fluorescence intensity (a.u.)
CTTTAATTTCTATCCTGATCCATTAAGCGAGTGGTCTCAACGGAGTCACCTAGTGCAG | 13700 fluorescence intensity (a.u.)
TGGTAATAGAATAGTTTGGTGTACTTCTGTTTGGTGATGACGGAGTCACCTAGTGCAG | 3150 fluorescence intensity (a.u.)
GCGCTGATGAGTGATGACACGCGACAGCGAATCCGGCCGCCGGAGTCACCTAGTGCAG | 9110 fluorescence intensity (a.u.)
ATATGATTATTTGTACCCTCAAAAGAATATATGATTATTTCGGAGTCACCTAGTGCAG | 10300 fluorescence intensity (a.u.)
TTAAAATTAATTATATTTTCCCCTGTTCTGTTTGAGCATTCGGAGTCACCTAGTGCAG | 43900 fluorescence intensity (a.u.)
GGGTCATGAATTAGATTGGTCACTTTTGAGGGTCCTGAAGCGGAGTCACCTAGTGCAG | 11000 fluorescence intensity (a.u.)
GATAGATTGATGGATAAGGTGGACCTGTATGGGCTGAATCCGGAGTCACCTAGTGCAG | 41100 fluorescence intensity (a.u.)
TATACAGCTAATTAAGTATGTGAGTGCAGTGAAAGAGAGGCGGAGTCACCTAGTGCAG | 8690 fluorescence intensity (a.u.)
AACACAGTAACTTAATTAATATCACATCTGCACCCATATGCGGAGTCACCTAGTGCAG | 7800 fluorescence intensity (a.u.)
AGGCACATAAACTTGTTTGATTGTTGTGCAAAAGACTTGACGGAGTCACCTAGTGCAG | 3910 fluorescence intensity (a.u.)

Sequence | binding signal
GTACTGACAAAATTTTATGTTGTTTATGTTAATCTACAGTCGGAGTCACCTAGTGCAG | 4650 fluorescence intensity (a.u.)
AAGACGTGATGTTGTTGATTTCCATGTAACATTTGATGATCGGAGTCACCTAGTGCAG | 3860 fluorescence intensity (a.u.)
GCACAATCATGCTACTAATTACCCTTTTCAACCTATAAATCGGAGTCACCTAGTGCAG | 11200 fluorescence intensity (a.u.)
CTAAGTATAAATGCAATGTAATTGGGTATAACTACAAGTTCGGAGTCACCTAGTGCAG | 4420 fluorescence intensity (a.u.)
CTGTGATTTCCTTTTACTTTTATTTTCCGAACCAAAATAACGGAGTCACCTAGTGCAG | 18300 fluorescence intensity (a.u.)
CTCATAGTAATTAATATTTGGCCTTTGTGTTAATTCAGCTCGGAGTCACCTAGTGCAG | 7850 fluorescence intensity (a.u.)
ACCGTTGGATTTAATTACTAATAGGTACTGTTGTTATGAACGGAGTCACCTAGTGCAG | 3650 fluorescence intensity (a.u.)
GAAAATTAGATTTAATTTCAACTTGGCTTGGGTGGATGGACGGAGTCACCTAGTGCAG | 49500 fluorescence intensity (a.u.)
GATAGACTGCAAATCTGTAACAGGAGCATCAACAAAGTAGCGGAGTCACCTAGTGCAG | 12500 fluorescence intensity (a.u.)
AGAAATGGTTATGATTAGTTGAGATAGGAAAATAGGTGAACGGAGTCACCTAGTGCAG | 8960 fluorescence intensity (a.u.)
TTGGATTGGTCATATCCTGTATATAGCAATATTTTGGAATCGGAGTCACCTAGTGCAG | 3290 fluorescence intensity (a.u.)
TTAACAAGATATATTGATATGTGATATACCCACTAGACAACGGAGTCACCTAGTGCAG | 8580 fluorescence intensity (a.u.)
CCTTGCAACCATTTCAATCACCACACAACAATCCAACAAACGGAGTCACCTAGTGCAG | 5850 fluorescence intensity (a.u.)
ATGATAATTAGTAGTAGTACTCTATTATGAACACAATAAACGGAGTCACCTAGTGCAG | 10800 fluorescence intensity (a.u.)
AACAAATTTGACTTATGTAGCAAGTAATAAGTAGTAACCGCGGAGTCACCTAGTGCAG | 11300 fluorescence intensity (a.u.)
ATGTTACAAATTAGATTATTCCATATGCGTGACATATCTACGGAGTCACCTAGTGCAG | 9300 fluorescence intensity (a.u.)
GTAAAGATTGAAGGCCTGACCGAGGAGAATGTGAAGCTAACGGAGTCACCTAGTGCAG | 9570 fluorescence intensity (a.u.)
AAACGTTGACAGATTTGGCCCTCTCCCACACGAATGCTGCCGGAGTCACCTAGTGCAG | 18400 fluorescence intensity (a.u.)
ACAAAATCAATTACGAGCGCACAAGGAAAATAAAAGAAGTCGGAGTCACCTAGTGCAG | 8800 fluorescence intensity (a.u.)
CCATATCAATCTCATATAAACTGGATTAGGGCTATTACCTCGGAGTCACCTAGTGCAG | 23100 fluorescence intensity (a.u.)
TTTTGTTTATCAGTTTGTGATTTAATTCCGTTTTCGCCTACGGAGTCACCTAGTGCAG | 7150 fluorescence intensity (a.u.)

Sequence | binding signal
GATAAATTGAGGGACCTAGAGAGAGAACTTATTCATTTTACGGAGTCACCTAGTGCAG | 3330 fluorescence intensity (a.u.)
GAAGGGGTGATTATTATCAAGCGGTGACCCTTATTGGTGTCGGAGTCACCTAGTGCAG | 4290 fluorescence intensity (a.u.)
TGAAACACAATCAAATCATCTCATAAAACATTTTGTTACACGGAGTCACCTAGTGCAG | 4620 fluorescence intensity (a.u.)
CAAGATTGTGACTCTGACCAGTAACACCGGCACACTTGCACGGAGTCACCTAGTGCAG | 4930 fluorescence intensity (a.u.)
TATTAACATCAGTGGTAATTAATTAAGCATCTCCAATCAACGGAGTCACCTAGTGCAG | 10200 fluorescence intensity (a.u.)
ATAGATTGAATTATACTTGAAAGTATAACTGTGTCAGATACGGAGTCACCTAGTGCAG | 21500 fluorescence intensity (a.u.)
ACTATAGTGTAATTACGGTGTAACTATATAAGTACACTTACGGAGTCACCTAGTGCAG | 3740 fluorescence intensity (a.u.)
GGGGATTAATGGATTATAATGTGTCTTATAACTAAAAGGACGGAGTCACCTAGTGCAG | 15100 fluorescence intensity (a.u.)
TGTATTATGATTAATTGGACCAATTGGTTTCGATGGAATACGGAGTCACCTAGTGCAG | 39800 fluorescence intensity (a.u.)
ATCTCGTTTTAGGCTAATTAACAGGTTTTGGAGCCTTCCTCGGAGTCACCTAGTGCAG | 4930 fluorescence intensity (a.u.)
TTAACAATTATTAGTCCACACAAAAGATCTATAATTATGGCGGAGTCACCTAGTGCAG | 7900 fluorescence intensity (a.u.)
CAAATTAGGTGTGATGACAATTGTACTACTTATGAACCGTCGGAGTCACCTAGTGCAG | 13400 fluorescence intensity (a.u.)
TTTATTAATTAAAACTCAATTAATAACACGTTATTACCACCGGAGTCACCTAGTGCAG | 20600 fluorescence intensity (a.u.)
TGGATTGACAAAGTCACAAAACTACAGCGCACCAGTGAGCCGGAGTCACCTAGTGCAG | 20200 fluorescence intensity (a.u.)
ATCCAATCATAACCCTCCACCACTCACTTCTACCTACTTTCGGAGTCACCTAGTGCAG | 6040 fluorescence intensity (a.u.)
TCCACTCGTCTTAATTAGTCTCCACCAATTCTCTCTTTCTCGGAGTCACCTAGTGCAG | 6350 fluorescence intensity (a.u.)
CCCAATTAACTCTCAGTCTCGTTGGGCCACACGCAAAGCACGGAGTCACCTAGTGCAG | 9690 fluorescence intensity (a.u.)
AAATGATTGGAGCTAATAGTTGGCTATACTATTAAACTTGCGGAGTCACCTAGTGCAG | 44000 fluorescence intensity (a.u.)
CTAGCAATTATTATCTAGAGTATTTTAAGTATCACGCAAACGGAGTCACCTAGTGCAG | 3700 fluorescence intensity (a.u.)
TTAAATAGAATGCTGACTGAACTGTCACGTGTAGACCAAACGGAGTCACCTAGTGCAG | 23400 fluorescence intensity (a.u.)
CATTCTTGGGGATTGACTAAGCAAACCATTAGGGTGCCGGCGGAGTCACCTAGTGCAG | 5380 fluorescence intensity (a.u.)

Sequence | binding signal
TTTAATTTTAGCGTGAACCAAACTTTATCGCACGGTGCTACGGAGTCACCTAGTGCAG | 7490 fluorescence intensity (a.u.)
TACGTTAATTTATACTGCGTTTCACAGTGCATTTAGTGGACGGAGTCACCTAGTGCAG | 29600 fluorescence intensity (a.u.)
ACTCGAAATTTGTTGGGAACTCATCAGAGATAGACTGGAGCGGAGTCACCTAGTGCAG | 3700 fluorescence intensity (a.u.)
ATAAAATTATCTATTCCACATAAATTTCAAAAGATATGATCGGAGTCACCTAGTGCAG | 5590 fluorescence intensity (a.u.)
CCGTTTGATTTGTAACGTAACCTGTGTGTTACATTGTCAGCGGAGTCACCTAGTGCAG | 34500 fluorescence intensity (a.u.)
CTGTCAATCCCATTCCCATTCCCATTCCCATTCCCTCCCCCGGAGTCACCTAGTGCAG | 6860 fluorescence intensity (a.u.)
CAAGACGTAGCTGATTTGAATTAATCAAGAGAAGCTTGTGCGGAGTCACCTAGTGCAG | 11400 fluorescence intensity (a.u.)
ACCTGGCAATCACTCAACAAACAACAAATCCAAGTGTACGCGGAGTCACCTAGTGCAG | 9850 fluorescence intensity (a.u.)
CAGATAATTAGCTACCTGTTTAATAGATCATCTTGATCATCGGAGTCACCTAGTGCAG | 53400 fluorescence intensity (a.u.)
CCCTAATTTCTCAGCCCGGCTGTATGATAAATCTGAAATGCGGAGTCACCTAGTGCAG | 8460 fluorescence intensity (a.u.)
AGTCAACACTTAAATTAATAAGATTAGCCCCATGTAGTATCGGAGTCACCTAGTGCAG | 3500 fluorescence intensity (a.u.)
GTCAAAATGTCACTTAATTTAGTATCGAATGGTTGCAAGTCGGAGTCACCTAGTGCAG | 8250 fluorescence intensity (a.u.)
GTCTACTTCTAAATTTGTATTAGTTAACTCTTTAATTCGTCGGAGTCACCTAGTGCAG | 3260 fluorescence intensity (a.u.)
TAATCATTTTCTATCACAGGTTTAAACAGAATCAACTTGTCGGAGTCACCTAGTGCAG | 4020 fluorescence intensity (a.u.)
TCTTGGACTGATTAATCGATTGGTTGATTTCTATCCCTCACGGAGTCACCTAGTGCAG | 32300 fluorescence intensity (a.u.)
AGTGACCAATCATTAGGTGATAAATCCCATATGCTTTTGTCGGAGTCACCTAGTGCAG | 10800 fluorescence intensity (a.u.)
TTGTTAATTGAGTGTGAAAGAGAGATGTTTTGCTTCAGCTCGGAGTCACCTAGTGCAG | 44400 fluorescence intensity (a.u.)
AGACAAATCTTTTGAGTCTAATTACGTCATGATTTGACCACGGAGTCACCTAGTGCAG | 13400 fluorescence intensity (a.u.)
AATTAATTTATAGCTCACTATTATCTATGCTATAAGGCAGCGGAGTCACCTAGTGCAG | 28800 fluorescence intensity (a.u.)
GTGGTTTGATTAATACTCCTACAAAGCAAGCATGCATGTGCGGAGTCACCTAGTGCAG | 6260 fluorescence intensity (a.u.)
CCATAGTAATTTCAAATGATTGGATAGGATTTAATCCTTTCGGAGTCACCTAGTGCAG | 33800 fluorescence intensity (a.u.)
